Measured values reported in patent publication US11814447B2, “Peptide ligands for binding to EphA2” (BICYCLERD LIMITED, priority 2018, dated 2023).

Biological target: T1, Human EphA2 (Homo sapiens, UniProt P29317)
T1 construct: EphA2 (Ecto); polyHis (C)
Experiment: Fluorescence polarisation direct binding assay
Conditions: read-out: KD, nM ± 95% CI Human EphA2; Table 5

T1 sequence (P29317 24-537 limits assumed): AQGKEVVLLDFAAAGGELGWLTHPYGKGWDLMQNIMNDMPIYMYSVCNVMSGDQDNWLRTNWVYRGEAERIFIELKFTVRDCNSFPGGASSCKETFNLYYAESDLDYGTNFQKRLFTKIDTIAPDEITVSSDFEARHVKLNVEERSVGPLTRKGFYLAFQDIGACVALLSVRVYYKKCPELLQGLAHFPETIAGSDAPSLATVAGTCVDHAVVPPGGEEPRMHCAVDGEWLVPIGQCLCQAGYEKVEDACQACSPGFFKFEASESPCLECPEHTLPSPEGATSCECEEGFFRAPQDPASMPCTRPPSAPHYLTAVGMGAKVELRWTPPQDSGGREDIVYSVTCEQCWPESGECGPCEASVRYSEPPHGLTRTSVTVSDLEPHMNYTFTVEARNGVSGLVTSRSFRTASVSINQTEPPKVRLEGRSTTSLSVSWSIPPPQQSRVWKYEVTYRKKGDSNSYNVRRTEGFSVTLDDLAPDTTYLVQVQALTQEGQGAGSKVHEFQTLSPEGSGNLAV

CC(C)[C@@H]1NC(=O)[C@@H]2CCCN2C(=O)[C@@H]2CSCc3cc(cc(c3)CSC[C@H](NC(=O)[C@H](C)NC(=O)CN(C)C(=O)CN(C)C(=O)CN(C)C(=O)CN(C)C(=O)CN(C)C(=O)CN(C)C(=O)CN(C)C(=O)CN(C)C(=O)CN(C)C(=O)CN(C)C(=O)CCNC(=O)c3ccc4c(c3)C(=O)OC43c4ccc(N)c(S(=O)(=O)O)c4Oc4c3ccc(N)c4S(=O)(=O)O)C(=O)N3CCC[C@H]3C(=O)N[C@@H](Cc3c[nH]c4ccccc34)C(=O)NCC(=O)N3CCC[C@H]3C(=O)N[C@@H](Cc3ccccc3)C(=O)N[C@@H](Cc3c[nH]c4ccccc34)C(=O)N2)CSC[C@@H](C(N)=O)NC(=O)CNC(=O)[C@@H]2CCCN2C(=O)[C@H](CCCNC(=N)N)NC(=O)[C@H](CC(N)=O)NC1=O [A68]
Kd: 15.4 ± 2.87 nM
